Values marked as one replicate rest on one cluster of the flow cell; about a third of the high ones do not repeat.
These sequences were tested on ATP (assay: switch fluorescence ratio, 500 uM ATP over buffer (Cy3 cluster intensity, sum of 5 cycles each) (fold (ratio)); higher = stronger signal-on switching upon ATP binding; sequences stand for … in TCGTCGGCAGCGTCAGATGTGTATAAGAGACAGTTTTTTTTTTTTTTTTTTTTTTTTT…TC). Conditions: aptamer strand: ATP DNA aptamer (quencher-CACCTGGGGGAGTATTGCGGAGGAAGG + anchor), 100 nM annealed; ATP concentration: 500 uM; one replicate.
In short: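 Per cluster, summed Cy3 intensity from the target cycles was divided by that from the buffer cycles to give the fluorescence ratio, then averaged per switch-domain sequence. Clusters outside 100-1000 RFU were excluded. The Cy3-labelled switching-strand clusters, on a modified Illumina MiSeq flow-cell, were annealed to 100 nM quencher-labelled ATP aptamer and imaged in selection buffer, then after 15 min with 500 uM ATP at 22 °C, for five cycles with NaOH stripping and re-annealing between them.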
Sequence AACCAGTTGT has a switch fluorescence ratio of 0.999.
In the case of AACCATGAGT, the switch fluorescence ratio is reported as 1.05.
Sequence AACCCAGTCG has a switch fluorescence ratio of 1.06.
For AACCGAACAT, the switch fluorescence ratio was 1.17.
AACCGACGTG gave a switch fluorescence ratio of 1.17.
Work on AACCGCTTAA yielded a switch fluorescence ratio of 1.35.
AACCGTAATC was tested, and the switch fluorescence ratio was 2.78.
Sequence AACCTGTCAA has a switch fluorescence ratio of 1.2.
Sequence AACCTTAA has a switch fluorescence ratio of 1.28.
In the case of AACCTTAGGG, the switch fluorescence ratio is reported as 1.02.
In the case of AACCTTCACA, the switch fluorescence ratio is reported as 1.56.
AACCTTGAGG was tested, and the switch fluorescence ratio was 0.986.
With AACGAAAGAG the switch fluorescence ratio was 1.03.
Work on AACGAATTCG yielded a switch fluorescence ratio of 0.974.
For AACGATGCAA, the switch fluorescence ratio was 1.78.
AACGGATGGG gave a switch fluorescence ratio of 0.97.
Work on AACGGCATAA yielded a switch fluorescence ratio of 1.11.
AACGGCCT showed a switch fluorescence ratio of 1.01.
AACGGGCGA was tested, and the switch fluorescence ratio was 1.04.
For AACGGTAAA, the switch fluorescence ratio was 1.03.
Work on AACGGTAACA yielded a switch fluorescence ratio of 1.1.
For AACGGTCGAG, the switch fluorescence ratio was 0.965.
AACGGTGTCT was tested, and the switch fluorescence ratio was 1.02.
Sequence AACGGTTAGC has a switch fluorescence ratio of 1.02.
Work on AACGGTTGAA yielded a switch fluorescence ratio of 1.
With AACGGTTGGG the switch fluorescence ratio was 1.02.
AACGTAAGG showed a switch fluorescence ratio of 1.11.
AACGTAGGAT was tested, and the switch fluorescence ratio was 1.01.
AACGTATCAT showed a switch fluorescence ratio of 0.989.
Sequence AACGTATCGG has a switch fluorescence ratio of 0.99.
With AACGTATTTG the switch fluorescence ratio was 1.07.
With AACGTATTTT the switch fluorescence ratio was 1.11.
In the case of AACGTCATTC, the switch fluorescence ratio is reported as 1.05.
AACGTGATAT showed a switch fluorescence ratio of 1.18.
AACGTGCGCG was tested, and the switch fluorescence ratio was 1.01.
AACGTGGCTT showed a switch fluorescence ratio of 0.975.
AACGTGGTGT gave a switch fluorescence ratio of 1.03.
In the case of AACGTTACAT, the switch fluorescence ratio is reported as 1.37.
AACTAATGCG showed a switch fluorescence ratio of 0.968.
In the case of AACTACCCTC, the switch fluorescence ratio is reported as 1.05.
With AACTACGTGG the switch fluorescence ratio was 1.01.
AACTACTTAC was tested, and the switch fluorescence ratio was 1.48.
For AACTAGACCA, the switch fluorescence ratio was 1.03.
AACTATGTAT showed a switch fluorescence ratio of 1.
Work on AACTATTACA yielded a switch fluorescence ratio of 1.09.
AACTCGGGCG gave a switch fluorescence ratio of 0.932.
AACTCGGGTG was tested, and the switch fluorescence ratio was 1.18.
For AACTCTAGGG, the switch fluorescence ratio was 0.989.
AACTCTAGTG gave a switch fluorescence ratio of 0.958.
In the case of AACTGACCCA, the switch fluorescence ratio is reported as 1.08.
With AACTGCCACA the switch fluorescence ratio was 1.22.
For AACTGGCCGG, the switch fluorescence ratio was 1.01.
Sequence AACTGGCTTG has a switch fluorescence ratio of 1.
AACTGGGTTA gave a switch fluorescence ratio of 0.973.
Work on AACTGTTCAT yielded a switch fluorescence ratio of 1.04.
AACTGTTTTG was tested, and the switch fluorescence ratio was 1.
In the case of AACTTCCTTG, the switch fluorescence ratio is reported as 1.29.
AACTTCTGAG showed a switch fluorescence ratio of 1.03.
In the case of AACTTGGGCC, the switch fluorescence ratio is reported as 1.01.
In the case of AACTTGGGGT, the switch fluorescence ratio is reported as 1.01.
AACTTGTCTC showed a switch fluorescence ratio of 0.985.
For AAGAAAACG, the switch fluorescence ratio was 1.01.
With AAGAAACGGT the switch fluorescence ratio was 0.975.
Work on AAGAAACTGA yielded a switch fluorescence ratio of 1.04.
For AAGAAAGCCT, the switch fluorescence ratio was 0.979.
AAGAAAGGAT gave a switch fluorescence ratio of 0.99.
In the case of AAGAAATGCT, the switch fluorescence ratio is reported as 1.08.
AAGAACGTGG was tested, and the switch fluorescence ratio was 0.993.
Work on AAGAACTTA yielded a switch fluorescence ratio of 1.03.
For AAGAAGGATT, the switch fluorescence ratio was 0.972.
With AAGAAGGTGC the switch fluorescence ratio was 1.41.
AAGAAGTACT gave a switch fluorescence ratio of 1.46.
In the case of AAGAAGTTGA, the switch fluorescence ratio is reported as 1.02.
AAGAATCAGT gave a switch fluorescence ratio of 1.02.
For AAGAATCCGA, the switch fluorescence ratio was 1.01.
Work on AAGAATGACC yielded a switch fluorescence ratio of 1.16.
Work on AAGAATGCGC yielded a switch fluorescence ratio of 0.961.
Sequence AAGAATTAGA has a switch fluorescence ratio of 1.03.
Sequence AAGAATTCTT has a switch fluorescence ratio of 0.965.
AAGACCAGGT gave a switch fluorescence ratio of 1.13.
AAGACCATCA was tested, and the switch fluorescence ratio was 1.01.
AAGACGCCAC gave a switch fluorescence ratio of 1.74.
For AAGACTGACT, the switch fluorescence ratio was 1.14.
Work on AAGAGAAACA yielded a switch fluorescence ratio of 1.07.
For AAGAGACTCA, the switch fluorescence ratio was 1.05.
AAGAGAGAGG gave a switch fluorescence ratio of 0.947.
AAGAGCAACG showed a switch fluorescence ratio of 0.946.
With AAGAGCATAT the switch fluorescence ratio was 1.09.
Sequence AAGAGGACGT has a switch fluorescence ratio of 0.993.
AAGAGTCGTT was tested, and the switch fluorescence ratio was 1.06.
Sequence AAGATAGAGG has a switch fluorescence ratio of 0.978.
AAGATAGGGT gave a switch fluorescence ratio of 1.
For AAGATAGTG, the switch fluorescence ratio was 1.01.
For AAGATATCTC, the switch fluorescence ratio was 0.979.
In the case of AAGATATTCG, the switch fluorescence ratio is reported as 0.974.
Sequence AAGATCAGAA has a switch fluorescence ratio of 1.01.
AAGATCAGAC was tested, and the switch fluorescence ratio was 0.985.
AAGATCCCTC was tested, and the switch fluorescence ratio was 1.
Sequence AAGATCGTGT has a switch fluorescence ratio of 0.984.
AAGATCTCTG gave a switch fluorescence ratio of 0.965.
For AAGATGAAGT, the switch fluorescence ratio was 0.994.
With AAGATGTTA the switch fluorescence ratio was 1.03.
Work on AAGATTATCC yielded a switch fluorescence ratio of 0.978.
For AAGATTCGGG, the switch fluorescence ratio was 0.999.
With AAGCAAAGTG the switch fluorescence ratio was 0.979.
In the case of AAGCAATAGC, the switch fluorescence ratio is reported as 2.42.
With AAGCACGATT the switch fluorescence ratio was 1.22.
Work on AAGCAGGCTA yielded a switch fluorescence ratio of 1.06.
With AAGCATAGCA the switch fluorescence ratio was 1.04.
AAGCATTCAA gave a switch fluorescence ratio of 0.985.
For AAGCATTCAG, the switch fluorescence ratio was 1.01.
Work on AAGCCACTGG yielded a switch fluorescence ratio of 1.01.
With AAGCCAGAGT the switch fluorescence ratio was 0.988.
With AAGCCAGATA the switch fluorescence ratio was 0.969.
Sequence AAGCCATAAT has a switch fluorescence ratio of 0.999.
With AAGCCGAGAG the switch fluorescence ratio was 0.963.
With AAGCCGAGCA the switch fluorescence ratio was 0.991.
Sequence AAGCCGGAGA has a switch fluorescence ratio of 1.01.
In the case of AAGCCGGCTC, the switch fluorescence ratio is reported as 0.977.
AAGCCGTTGA was tested, and the switch fluorescence ratio was 0.989.
Work on AAGCCTTCGA yielded a switch fluorescence ratio of 1.12.
With AAGCCTTG the switch fluorescence ratio was 1.
Work on AAGCGAACCG yielded a switch fluorescence ratio of 1.06.
In the case of AAGCGATAGC, the switch fluorescence ratio is reported as 1.03.
AAGCGCAGAA gave a switch fluorescence ratio of 1.02.
With AAGCGCCTTG the switch fluorescence ratio was 0.972.
AAGCGGAACA was tested, and the switch fluorescence ratio was 0.99.
AAGCTAGGTT showed a switch fluorescence ratio of 1.04.
For AAGCTATAGA, the switch fluorescence ratio was 1.07.
AAGCTCTTGG showed a switch fluorescence ratio of 1.01.
For AAGCTGCTTG, the switch fluorescence ratio was 1.01.
AAGCTTAATT gave a switch fluorescence ratio of 0.984.
AAGCTTACCG gave a switch fluorescence ratio of 1.16.
AAGCTTGATC was tested, and the switch fluorescence ratio was 0.994.
With AAGGAAGGCT the switch fluorescence ratio was 0.994.
Sequence AAGGACCGCA has a switch fluorescence ratio of 1.25.
AAGGACTCC gave a switch fluorescence ratio of 1.06.
Sequence AAGGAGAATG has a switch fluorescence ratio of 1.
AAGGAGACAT was tested, and the switch fluorescence ratio was 0.96.
In the case of AAGGAGCGCC, the switch fluorescence ratio is reported as 0.98.
With AAGGAGCGGG the switch fluorescence ratio was 1.14.
With AAGGAGTCCA the switch fluorescence ratio was 0.984.
Sequence AAGGAGTCGC has a switch fluorescence ratio of 1.03.
In the case of AAGGATTCCG, the switch fluorescence ratio is reported as 0.912.
With AAGGATTGTA the switch fluorescence ratio was 0.945.
With AAGGCATCTC the switch fluorescence ratio was 1.01.
For AAGGCATTGA, the switch fluorescence ratio was 1.04.
AAGGCCAAG gave a switch fluorescence ratio of 1.04.
Sequence AAGGCCTGCG has a switch fluorescence ratio of 1.02.
For AAGGCGGTAG, the switch fluorescence ratio was 1.02.
In the case of AAGGCGTGG, the switch fluorescence ratio is reported as 1.
With AAGGCTCAC the switch fluorescence ratio was 1.05.
With AAGGCTCGAG the switch fluorescence ratio was 1.01.
AAGGCTGAGC was tested, and the switch fluorescence ratio was 1.03.
Work on AAGGGACGTA yielded a switch fluorescence ratio of 1.01.
In the case of AAGGGCCAGA, the switch fluorescence ratio is reported as 0.965.
With AAGGGCGAAA the switch fluorescence ratio was 0.959.
In the case of AAGGGCTTC, the switch fluorescence ratio is reported as 0.966.
AAGGGTATCT showed a switch fluorescence ratio of 1.
Sequence AAGGGTGAAA has a switch fluorescence ratio of 0.973.
With AAGGGTGGCT the switch fluorescence ratio was 1.03.
Sequence AAGGGTTCAG has a switch fluorescence ratio of 0.979.
For AAGGGTTGTG, the switch fluorescence ratio was 1.
AAGGTCATG was tested, and the switch fluorescence ratio was 0.958.
With AAGGTCTGCC the switch fluorescence ratio was 0.989.
In the case of AAGGTGAGTC, the switch fluorescence ratio is reported as 1.
AAGGTGATAC showed a switch fluorescence ratio of 1.52.
AAGGTGATGG was tested, and the switch fluorescence ratio was 1.08.
With AAGGTGATTG the switch fluorescence ratio was 0.965.
In the case of AAGGTGGCT, the switch fluorescence ratio is reported as 1.05.
Work on AAGGTGTATT yielded a switch fluorescence ratio of 1.04.
For AAGGTTCCCA, the switch fluorescence ratio was 1.03.
AAGGTTGAAG showed a switch fluorescence ratio of 1.
In the case of AAGGTTGAGC, the switch fluorescence ratio is reported as 1.02.
Work on AAGGTTGGCG yielded a switch fluorescence ratio of 1.01.
For AAGGTTTGGC, the switch fluorescence ratio was 1.09.
AAGTAACTTG was tested, and the switch fluorescence ratio was 0.997.
AAGTAAGAGG was tested, and the switch fluorescence ratio was 0.959.
For AAGTACAATT, the switch fluorescence ratio was 1.2.
AAGTACGTAC gave a switch fluorescence ratio of 1.27.
Work on AAGTAGACGG yielded a switch fluorescence ratio of 0.993.
For AAGTAGAGCC, the switch fluorescence ratio was 0.935.
Work on AAGTAGCACT yielded a switch fluorescence ratio of 0.957.
Work on AAGTAGGATC yielded a switch fluorescence ratio of 0.948.
AAGTATCCTG showed a switch fluorescence ratio of 0.939.
In the case of AAGTATTACG, the switch fluorescence ratio is reported as 0.944.
Sequence AAGTCAGCGT has a switch fluorescence ratio of 0.978.
Work on AAGTCCCGCC yielded a switch fluorescence ratio of 1.01.
In the case of AAGTCGAAAG, the switch fluorescence ratio is reported as 0.996.
AAGTCGACT was tested, and the switch fluorescence ratio was 1.02.
AAGTCTCCTG showed a switch fluorescence ratio of 0.989.
AAGTCTCGCG showed a switch fluorescence ratio of 0.965.
AAGTCTGGAC was tested, and the switch fluorescence ratio was 0.989.
With AAGTGCGTTA the switch fluorescence ratio was 0.95.
AAGTGGGAAG gave a switch fluorescence ratio of 0.975.
In the case of AAGTGGGGGC, the switch fluorescence ratio is reported as 1.04.
Sequence AAGTGTGAAT has a switch fluorescence ratio of 0.985.
For AAGTGTTTGT, the switch fluorescence ratio was 1.01.
For AAGTTCACAT, the switch fluorescence ratio was 1.02.
AAGTTCAGGA gave a switch fluorescence ratio of 0.999.
AAGTTCAGGG gave a switch fluorescence ratio of 0.988.

— the supplement of paper PMC10126150
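Further: ATP exposure 15 min at 22 °C before imaging.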
